According to PubChem BioAssay AID651820 (National Center for Advancing Translational Sciences (NCATS), 2012):
Hit rate of the full screen: of about 340,000 compounds, about 12,000 (3.5%) were called active. Inconclusive results, whose numbers are uncertain, are shown with a selection of clear calls. The call rests on the fitted dose curve; in most records, active means well fitted inhibition curve with a large enough effect; inconclusive means small, poorly fitted or top-dose-only effect, or another doubt; inactive means no such curve, though single readings can be large or run the other way. Potencies of inconclusive entries are left out as doubtful fits.

Experiment: qHTS Assay for Inhibitors of Hepatitis C Virus (HCV)
Details: Huh7.5.1 HCVcc-Cre (HCVcc is cell-culture hepatitis C virus) infection, luciferase reporter, 44 h; activity change, negative = inhibition: at 41.8 µM (top of the series)
In short: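 After 44 h co-culture of compound, cells and HCVcc-Cre (~0.5 moi), substrate is added for 15 min at room temperature and luciferase measured over 15 sec. Cells were seeded at 1,000/well and pre-cultured 4 h.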
On the % scale 0 is the no-effect control and ±100 the full control effect; potency means the concentration at half of the fitted maximal effect; tags describe the fitted curve by direction and shape.

Question: With CN(C)CCNC(=O)c1c(CSc2ccccc2)noc1C(=O)NCc1ccccc1 as the compound, how does the Potency read?
Answer: The Potency was inconclusive [inhibitor, single point].

Question: For CN(C)S(=O)(=O)c1cccc(NC(=O)CSc2ncnc3ccccc23)c1, which Potency is on record?
Answer: Its Potency is active: 7.94 µM.

Question: With O=C(NC(Cc1ccccc1)C(=O)O)C1CCN(S(=O)(=O)c2cccc(C(F)(F)F)c2)CC1 (stereo not given) as the compound, how does the Potency read?
Answer: Its Potency is “inactive”.

Question: With O=C(/C=C\c1ccco1)Oc1cccc2cccnc12 as the compound, how does the Potency read?
Answer: The Potency was inconclusive [inhibitor, single point].

Question: With CCc1cc(=O)oc2cc(C)cc(OC(C)C(=O)NCCN3CCOCC3)c12 (stereo not given) as the compound, how does the Potency read?
Answer: Its Potency is “inactive”.

Question: With COCCCn1c(-c2ccc(OC)cc2)nc2c1c(=O)[nH]c(=O)n2Cc1ccccc1 as the compound, how does the Potency read?
Answer: The Potency was inconclusive [inhibitor, full curve].

Question: Which Potency does the source give for COc1ccc(S(=O)(=O)NC(C)C)cc1C(=O)NC1CCCCC1 here?
Answer: Its Potency is “inactive”.

Question: With COc1cccc2[nH]c3c(N4CCc5ccccc5C4)ncnc3c12 as the compound, how does the Potency read?
Answer: Its Potency is active: 11.2 µM.

Question: For CC(C)(CO)NC(=O)C12CC3CC(CC(Br)(C3)C1)C2, which Potency is on record?
Answer: The Potency was “inactive”.

Question: For Cc1sc2ncnc(N3CCC(C(=O)Nc4ccc(F)cc4Cl)CC3)c2c1C, which Potency is on record?
Answer: Its Potency is active: 11.2 µM.

Question: Which Potency does the source give for Cc1ccc2c(c1)N(C(=O)CCC(=O)NCC(C)c1ccccc1)CC(C)O2 (stereo not given) here?
Answer: Its Potency is inconclusive [inhibitor, partial curve, poor fit].

Question: Which Potency does the source give for CCOc1ccccc1CNC(=O)c1ccc(NC(=O)C2=CSCCO2)cc1 here?
Answer: The Potency was “inactive”.

Question: For COc1ccc(-n2c(C)c([N+](=O)[O-])c3ccc(O)c(CN(C)C)c32)cc1, which Potency is on record?
Answer: Its Potency is “inactive”.

Question: Which Potency does the source give for COc1ccc(Cl)cc1NC(=O)c1cccnc1 here?
Answer: The Potency was inconclusive [inhibitor, single point].

Question: Which Potency does the source give for COc1ccccc1C1C=C(c2ccc(C)cc2)Nc2nnnn21 (stereo not given) here?
Answer: The Potency was inconclusive [inhibitor, partial curve].

Question: Which Potency does the source give for CN(CC(=O)Nc1cccc(F)c1)C(=O)c1cn(-c2ccccc2)nc1-c1ccc(Cl)cc1 here?
Answer: The Potency was inconclusive [inhibitor, single point].

Question: With COc1cccc(-c2sc3ccc(OC)cc3c2C#CC2(O)CCCCC2)c1 as the compound, how does the Potency read?
Answer: The Potency was inconclusive [inhibitor, partial curve].

Question: With CCOC(=O)C1CCCN(C(=O)CCCn2nnnc2CN2CCC(C)CC2)C1 (stereo not given) as the compound, how does the Potency read?
Answer: The Potency was “inactive”.

Question: With Cc1cccc(NS(=O)(=O)c2ccc(C(=O)N3CCCCCC3)cc2)c1C as the compound, how does the Potency read?
Answer: Its Potency is “inactive”.

Question: With Cc1csc(NC(=O)c2cnc3ccccc3n2)n1 as the compound, how does the Potency read?
Answer: Its Potency is “inactive”.

Question: Which Potency does the source give for O=c1c2c(nc3n1CCCCC3)sc1c(O)cccc12 here?
Answer: Its Potency is “inactive”.

Question: With Cc1cc(C)c(NS(=O)(=O)c2ccc(NC(=O)c3cccs3)cc2)c(C)c1 as the compound, how does the Potency read?
Answer: Its Potency is inconclusive [inhibitor, partial curve, poor fit].

Question: Which Potency does the source give for c1coc(CNc2c3c(nc4ncnn24)CCCC3)c1 here?
Answer: The Potency was “inactive”.

Question: Which Potency does the source give for CCC(C)Sc1ccc([C@H]2N[C@@](C)(C(=O)OC)[C@H]3C(=O)N(C)C(=O)[C@@H]23)cc1 (stereo not given in full) here?
Answer: The Potency was inconclusive [inhibitor, partial curve].

Question: With COc1ccc(CCNC(=O)c2ccc(CS(=O)(=O)c3ccc(C)cc3)o2)cc1OC as the compound, how does the Potency read?
Answer: The Potency was active: 14.1 µM.

Question: With CCOC(=O)c1cc(-c2ccccc2)sc1N as the compound, how does the Potency read?
Answer: Its Potency is inconclusive [inhibitor, single point].

Question: Which Potency does the source give for CCC(=O)NC(=S)Nc1ccc(NC(=O)c2cccc([N+](=O)[O-])c2C)cc1 here?
Answer: The Potency was inconclusive [inhibitor, partial curve].

Question: For Cc1cc(C)cc(Oc2coc3c(CN(C)C)c(O)ccc3c2=O)c1, which Potency is on record?
Answer: Its Potency is “inactive”.

Question: Which Potency does the source give for C/C(=N\Nc1cc(N2CCCCC2)nc(C)n1)c1ccc(Br)cc1 here?
Answer: The Potency was active: 11.2 µM.

Question: With OCCCCNCc1ccc(OCc2ccc(Cl)cc2)cc1 as the compound, how does the Potency read?
Answer: The Potency was inconclusive [inhibitor, partial curve].

Question: For Clc1ccc(-c2nnc(-c3ccc4ccccc4c3)o2)cc1, which Potency is on record?
Answer: The Potency was inconclusive [inhibitor, single point].

Question: For Cc1cccc(N2C(=O)CC(SC(=Nc3ccccc3)Nc3ccccc3)C2=O)c1 (stereo not given), which Potency is on record?
Answer: Its Potency is inconclusive [inhibitor, partial curve].

Question: Which Potency does the source give for COc1cc(/C=C/C(=O)Nc2cccnc2)cc(OC)c1OC here?
Answer: The Potency was inconclusive [inhibitor, partial curve].

Question: With CSc1sc(C)cc1/C=N/O as the compound, how does the Potency read?
Answer: Its Potency is inconclusive [inhibitor, single point].

Question: With C/C(=N\NC(=O)COc1ccc(C)cc1Br)c1cc([N+](=O)[O-])cs1 as the compound, how does the Potency read?
Answer: The Potency was active: 8.91 µM.

Question: For CCOc1ccccc1N1CC(C(=O)NCCOc2ccccc2OC)CC1=O (stereo not given), which Potency is on record?
Answer: Its Potency is “inactive”.

Question: For Cc1ccc(Cl)cc1N1CCN(C(=O)Cc2csc(Nc3nc(=S)[nH]c4ccccc34)n2)CC1, which Potency is on record?
Answer: Its Potency is inconclusive [inhibitor, partial curve].

Question: With COc1ccc2oc(-c3ccccc3)c(C(=O)N3CCOCC3)c2c1 as the compound, how does the Potency read?
Answer: The Potency was inconclusive [inhibitor, single point].

Question: With Cc1ccc(COc2ccccc2C(=S)N2CCCC2)cc1 as the compound, how does the Potency read?
Answer: The Potency was inconclusive [inhibitor, partial curve, poor fit].

Question: For COc1ccc(C2CCCN2C(=S)Nc2cccc(C)c2)cc1OC (stereo not given), which Potency is on record?
Answer: The Potency was “inactive”.

Question: For COCCNC(=O)CSc1nnc2c(Cl)cc(Cl)cn12, which Potency is on record?
Answer: The Potency was “inactive”.

Question: With CN(C(=O)COc1ccccc1C(=O)NCCOc1ccccc1)c1ccccc1 as the compound, how does the Potency read?
Answer: Its Potency is active: 8.91 µM.

Question: Which Potency does the source give for CC(NC(=O)COc1ccccc1Cl)c1ccccc1 (stereo not given) here?
Answer: Its Potency is inconclusive [inhibitor, partial curve].

Question: For CCn1cc(C(=O)Nc2ccccc2C(=O)OC)cn1, which Potency is on record?
Answer: The Potency was inconclusive [inhibitor, partial curve].

Question: With COc1ccc(/C=N/NC(=O)c2cc(OC)c(OC)c(OC)c2)cc1CN1CCc2cc(OC)c(OC)cc2C1C (stereo not given) as the compound, how does the Potency read?
Answer: The Potency was active: 2 µM.

Question: Which Potency does the source give for CCOC(=O)Cc1csc(NC(=O)COC(=O)/C=C/c2ccc(OC)cc2)n1 here?
Answer: The Potency was inconclusive [inhibitor, single point].

Question: Which Potency does the source give for CCC(=O)Nc1sc2c(c1C(N)=O)CCC2 here?
Answer: Its Potency is “inactive”.

Question: Which Potency does the source give for CCCCCCSC1=C(C#N)C(c2ccc(O)cc2)CC(=O)N1 (stereo not given) here?
Answer: The Potency was inconclusive [inhibitor, partial curve, poor fit].

Question: For CCOc1ccc(S(=O)(=O)Nc2cccc(N(C)S(C)(=O)=O)c2)cc1, which Potency is on record?
Answer: Its Potency is active: 10 µM.

Question: Which Potency does the source give for Cc1cccc(-c2cc3c(nn2)-c2ccccc2C3=O)c1 here?
Answer: Its Potency is “inactive”.

Question: With N/C(=N\OC(=O)CC1CCCCC1)c1ccccn1 as the compound, how does the Potency read?
Answer: The Potency was “inactive”.

Question: Which Potency does the source give for Fc1ccccc1-c1nc(NC2CCCC2)c2ccccc2n1 here?
Answer: The Potency was inconclusive [inhibitor, partial curve].

Question: For O=C(/C=C/c1cccc(F)c1)Nc1cc(S(=O)(=O)N2CCOCC2)ccc1Cl, which Potency is on record?
Answer: Its Potency is inconclusive [inhibitor, full curve, poor fit].

Question: For C1=CC2=NC34CCCCC3CC3=C(CCCC3)N4C2=CC1=NC1CCCCC1 (stereo not given), which Potency is on record?
Answer: Its Potency is inconclusive [inhibitor, single point].

Question: For CC(C)CCOP(=O)(c1ccccc1)c1ccccc1, which Potency is on record?
Answer: Its Potency is “inactive”.

Question: With C/C(=N\OCc1ccc(C#N)cc1)c1cc2ccccc2o1 as the compound, how does the Potency read?
Answer: Its Potency is inconclusive [inhibitor, partial curve].

Question: Which Potency does the source give for Cc1nnsc1-c1onc(C)c1C(=O)Nc1cc(Cl)cc(Cl)c1 here?
Answer: Its Potency is inconclusive [inhibitor, single point].

Question: For c1ccc(-c2nc(NC3CCCC3)c3ccccc3n2)cc1, which Potency is on record?
Answer: The Potency was active: 1.26 µM.

Question: For COCc1c(C(=O)N/N=C(/C)c2cccs2)nnn1-c1nonc1N, which Potency is on record?
Answer: Its Potency is “inactive”.

Question: For COC(=O)c1ccc(OC)c(CN2CCCN(Cc3cc(C)ccc3C)S2(=O)=O)c1, which Potency is on record?
Answer: Its Potency is inconclusive [inhibitor, single point].

Question: With CC1Sc2ccc(S(=O)(=O)CCC(=O)NCc3ccc(Cl)cc3)cc2NC1=O (stereo not given) as the compound, how does the Potency read?
Answer: The Potency was inconclusive [inhibitor, single point].

Question: Which Potency does the source give for COc1cccc(NC(=S)Nc2cc(C(=O)O)ccc2N2CC3CC(C2)c2cccc(=O)n2C3)c1 (stereo not given) here?
Answer: Its Potency is inconclusive [inhibitor, single point].

Question: Which Potency does the source give for COc1ccc(C2c3[nH]c4ccccc4c3C[C@H]3C(=O)N(C4CCN(Cc5ccccc5)CC4)CC(=O)N23)cc1OC (stereo not given in full) here?
Answer: The Potency was inconclusive [inhibitor, single point].

Question: Which Potency does the source give for COc1ccc(-c2cc(-c3nnc(COC(=O)CC4CCCC4)o3)c3ccccc3n2)cc1OC here?
Answer: The Potency was inconclusive [inhibitor, single point].

Question: With O=C(Nc1cccc(Cl)c1)Nc1sccc1-c1nc2ccccc2s1 as the compound, how does the activity change, negative = inhibition read?
Answer: Its activity change, negative = inhibition is inconclusive: -33% [inhibitor].

Question: Which Potency does the source give for CCc1sc(C(=O)Nc2cc(Cl)ccc2N2CCCCC2)cc1C here?
Answer: The Potency was inconclusive [inhibitor, partial curve, poor fit].

Question: With CCn1c(CNC(=O)c2ccccc2F)nnc1SCCOc1ccccc1 as the compound, how does the Potency read?
Answer: Its Potency is “inactive”.

Question: For Cc1cc(F)ccc1S(=O)(=O)Nc1ccccc1C(=O)Nc1ccccc1-c1nc2ccccc2[nH]1, which Potency is on record?
Answer: Its Potency is active: 7.94 µM.

Question: For CCc1ccc(-c2csc(NC(=O)C3CC(=O)N(c4ccc5c(c4)OCCO5)C3)n2)cc1 (stereo not given), which Potency is on record?
Answer: The Potency was active: 11.2 µM.

Question: With CCOC(=O)c1c(C=O)c(C)n(Cc2ccc(C)cc2)c1C as the compound, how does the Potency read?
Answer: The Potency was active: 3.16 µM.

Question: For O=C(NC12CC3CC(CC(C3)C1)C2)c1cc2nc(-c3ccco3)cc(C(F)(F)F)n2n1, which Potency is on record?
Answer: The Potency was “inactive”.

Question: With COc1ccc(C(=O)N/C=C/n2cnc3cc(C(F)(F)F)ccc32)cc1 as the compound, how does the Potency read?
Answer: The Potency was inconclusive [inhibitor, single point].

Question: For CN(Cc1ccccc1Cl)C(=O)C1CC(=O)N(c2ccc3c(c2)OCCO3)C1 (stereo not given), which Potency is on record?
Answer: Its Potency is “inactive”.

Question: With C=CCOc1ccc2c(CC)cc(=O)oc2c1C as the compound, how does the Potency read?
Answer: The Potency was inconclusive [inhibitor, single point].

Question: With Cc1c(-n2c(=O)n(Cc3ccccc3)c(=O)c3[nH]cnc32)cccc1S(C)=O (stereo not given) as the compound, how does the Potency read?
Answer: The Potency was inconclusive [inhibitor, single point].
